Some of the results follow.
Tested on: PfAP2-HC AP2 domain (GST-tagged)
Assay: gcPBM binding intensity (ln(normalized median fluorescence intensity)); higher = stronger DNA binding
In short: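 Plasmodium falciparum DNA-binding domains carrying a GST tag were expressed in E. coli and applied for 1 h, at about 25 μg on average, to an Agilent 4 × 180k array. The array held primer-extended double-stranded 36-bp intergenic genomic probes together with negative controls, and binding took place in 1× PBS with 1% milk, 0.2 mg/ml BSA, 0.5% salmon testes DNA and 0.03% Triton X-100. An Alexa488 anti-GST antibody detected bound protein, and the array was scanned at 488 nm. Binding intensity is taken as the highest Masliner-normalised natural-log median intensity across replicate spots of either probe orientation.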

Row | Sequence | gcPBM binding intensity (ln)
1 | TTTTTTATTTTGTGCACACACATAAAAATATATATA [CACACA_site761] | 9.86
2 | TTGTTTTCTTATTATTACTACAATACTTAAGTCAGA [TGCATGCA_negctrl_site184] | 9.5
3 | TAATCATAACTTGATACGCACACGTTATATAAATAA [CACACA_site1579] | 9.61
4 | TATTTATTTATGGACACACATACAAATCTTCCAGAC [CACACA_site942] | 9.96
5 | TTTTGTTGGATACAAAAATTACAAATTATTTAAAAA [TGCATGCA_negctrl_site532] | 9.3
6 | TTTTTTATTTTAAAAACATGCATAAAATATAATAGT [TGCATGCA_site762] | 9.34
7 | AGATAAAAAAAGTACACACACACATATATTTATATA [CACACA_site7437] | 10.9
8 | TATATATTTAATTTCACACATATATATAATTATTAT [CACACA_site4936] | 9.71
9 | ATACACACTTAAAAAAGTACTTAACTACATGAATTG [XGTACX_site1203] | 9.78
10 | ATATTATATATAAAATGTACATTTAAAAATATTATA [XGTACX_site889] | 9.67
11 | TATCATAAAAAATATACACACAAAGGATATTTATAT [CACACA_site6841] | 9.79
12 | TATGAACACCAACACACACACAAAAAAAAAAAAAAA [CACACA_site2013] | 10.2
13 | GAATACATAATAACATGTACACACATTCTTCTATAA [XGTACX_site8725] | 9.82
14 | TATATATATAGAAATGCATGTTAATAAAAGTTATAA [TGCATGCA_site947] | 9.85
15 | TACGTAAAATAATTGAGTACATAATTATATATATAT [XGTACX_site5361] | 9.6
16 | AAAAATAATCATTAGGTGCAAAAAATATATATATAT [GTGCAC_site9631] | 10
17 | TTTTTTTTTTTAAATTCACACAATATATAAATATTG [CACACA_site5201] | 9.5
18 | AACAAATATATATGTAGTACATGTTGTAGATAATTT [XGTACX_site24] | 10.1
19 | AGAAAAATTATTTTGCGTACATATTTACAATAAAAA [XGTACX_site2144] | 9.41
20 | GTACATTATTTATATACACACAAAGAAAAATATACA [CACACA_site3452] | 9.93
21 | TTTAAAATATATAGTACACACGTGAACACAAATACA [CACACA_site4392] | 9.82
22 | TAAAGCATATTATAAACACACACTGTATAAAGATAT [CACACA_site296] | 10

Row | Sequence | gcPBM binding intensity (ln)
23 | AAAAAAAATATAATATGTACATATCTATATATCAAC [XGTACX_site4881] | 9.79
24 | TATACATATGAAAATACACACATACATACAGATATA [CACACA_site5002] | 10.3
25 | TTGTTTTTAATATCGGTGCAATGGAAAGAAAAGAAG [GTGCAC_site9494] | 9.5
26 | TAACCTATAATATTCACACACATATAAATATTATAG [CACACA_site6592] | 9.97
27 | TTAAAATAAAGTAGTGGTACAAAAAAAAAAAAAAAA [XGTACX_site6322] | 9.55
28 | ATTAAATCGATATATACACACATGTTTGGTATATTC [CACACA_site7285] | 9.77
29 | AGTAATAGTTTGTGCACACTCAAGTATATCATATAT [CACACA_site4034] | 10.2
30 | TTTTACTTAAAACACACACACACAAAAAAAAAAAAA [CACACA_site947] | 10.6
31 | TTTTTCAGAAAAGAAACACACATATTTATATTTATA [CACACA_site7167] | 9.59
32 | TATATGTATATATATTAACACACAAAAAAAAAAAAA [CACACA_site8534] | 9.75
33 | TAAACAAATAAATAAACACACAATATCTGTATTTAT [CACACA_site5978] | 9.75
34 | AATAAATTAGAAGGATGTACTTTGTTTAATATAGAG [XGTACX_site1943] | 9.62
35 | TAATATAATCTGAGTGCACACAAATAAATAAACATA [CACACA_site8032] | 9.94
36 | AGGTTATATATGAACAAAAATAAAATATTCATAGGC [TGCATGCA_negctrl_site46] | 9.77
37 | TATGCAAATTAATAATGTACGAAATATTTATAATTT [XGTACX_site2324] | 9.54
38 | AAAAGGAACGGACACACACACATATATATATATATA [CACACA_site5894] | 10.9
39 | ATGTTATAAAATATATGTACATATTTATATAAAATA [XGTACX_site5766] | 9.59
40 | ATATTATATATATGATGTACTAAATATATTATTATG [XGTACX_site1703] | 9.6
41 | TATTTTATATTATCATGTACAAAAAAAAAGAAAAGA [XGTACX_site5379] | 9.44
42 | ATAAATAATTAGAATTGTACAAAAATTATATATATG [XGTACX_site5107] | 9.72
43 | ATATATTTATATAAATGTACACGTGAATATATAATA [XGTACX_site1166] | 9.79
44 | TATATAAAAAGTAATTGTACATATATATATATATAT [XGTACX_site7953] | 9.6

Row | Sequence | gcPBM binding intensity (ln)
45 | TCTATTAATGAATATACACACATTATATATATATAT [CACACA_site5410] | 9.94
46 | TTTATATTCTTTTTTTAACACACAAAAAAAATAAAA [CACACA_site8574] | 9.4
47 | ATATGTAAAATGAAGATACATACATACATACATACA [CACACA_negctrl_site715] | 10
48 | GTATATTTAAATAAAAGTACGTAAAGATATATTTAA [XGTACX_site8087] | 9.89
49 | ATAATATGCAATATTACACACAATTCATCATTTTTT [CACACA_site7477] | 9.85
50 | AAAAAAAAAAAACACACACACACATACAAAATATAT [CACACA_site1448] | 11.3
51 | ACATATGAATATTTTTGTACGTATATTGTTATTCTT [XGTACX_site4720] | 10.2
52 | TTTTTTTTTATTATCATGCACACATTTTTTTTTTTT [CACACA_site2254] | 9.99
53 | AATTATACGAAATAAAACTTAATAGACAAAAAATTA [CACACA_negctrl_site1384] | 9.57
54 | GTAATTTAAATAACAAGTACTAATGTGGATAAGCAG [XGTACX_site1163] | 9.83
55 | ATTTTGTATTGACGCTGTACAAACATTAATATAATA [XGTACX_site2496] | 9.45
56 | TTTTGCGTAGCAACGAGGTTTTTAAAAATGTAACCA [GTGCAC_negctrl_site691] | 9.34
57 | AACAAAATAAAACACACACACAAATGTACATATATA [CACACA_site2424] | 10.6
58 | TAGAAGCATCATTTTACACACATGCAAATGTAAACT [CACACA_site6973] | 9.73
59 | TATATATATATATATAAGCTTATAATAAAACAAAAA [XGTACX_negctrl_site568] | 9.82
60 | ATAGCAATAATGGAAAGTACAAAAAAACTTGTTATA [XGTACX_site8518] | 9.63
61 | TGTATTAATAAAAATACACACATCATATTATATAAA [CACACA_site3534] | 9.73
62 | CCTTTTAAGAGTTGCACACGTACAAAAAAAAAAAAA [CACACA_site3492] | 9.67
63 | AATAATAAAAAATACGCACACATGTAAACGTATGTT [CACACA_site3336] | 9.96
64 | GGCGATATAGAACTACGTACTTATACAAATTATAAT [XGTACX_site2307] | 9.55
65 | ACACATAAATGTATATATATATAAATATATGTATGT [CACACA_negctrl_site1532] | 9.82
66 | ATAAATGTTATGCATACACACTTTATACCTATTTAA [CACACA_site5967] | 9.79

Row | Sequence | gcPBM binding intensity (ln)
67 | AATCCTTACAGACACACACACACGAATAAATAAAAA [CACACA_site480] | 10.6
68 | TATATATGTATATGTGTGCACCTTATTTCTTTTATT [GTGCAC_site9513] | 10
69 | TATGTATTATCAAAAAGTACTAAAAAAAAATAATAA [XGTACX_site4703] | 9.47
70 | TTATAATTTTTGAGCACACACAAGCATATATATATA [CACACA_site1798] | 9.84
71 | AATAAATACATACATACATGCATACATATATCTCAA [TGCATGCA_site1040] | 9.69
72 | AAAAATAAAATATATATATATATATATATATATATA [CACACA_negctrl_site58] | 9.46
73 | TATTTTTATATATATACACACTTACAGATATATATT [CACACA_site5905] | 9.9
74 | AAACATAAATATGAGAGTACAAAAAATATTATGAAT [XGTACX_site151] | 9.85
75 | TGAAAAAAAAAATGCACACGCATACATATAATATGT [CACACA_site641] | 9.76
76 | TTATAATATATTACAAGTTCATTCATATAATATGTT [CACACA_negctrl_site1695] | 9.52
77 | ATCTCTTAAATTTTACGTACTTATTTTATCTTCTTA [XGTACX_site8877] | 9.94
78 | TAAATAAATTTGCACTGTACGCAAAAAAAAAAAAGA [XGTACX_site8781] | 9.69
79 | GTATATATATATTTATGTACTTACCTACATAATTAT [XGTACX_site4435] | 10.1
80 | AAAGGGGAGATATGAACACACAAAAAAAAAATATAT [CACACA_site7378] | 9.72
81 | TATATATATTTTAAATGTACTTATAAATTACCACTT [XGTACX_site5673] | 9.6
82 | AGAAAGGATATAAGCGTAGCTATATCATAAAAAATG [GTGCAC_negctrl_site332] | 9.61
83 | AAATAAAATTTTTGTTGTACTTATTTTTAGTATACT [XGTACX_site4254] | 9.65
84 | AATATTTACAGACATGCGCACACATAAATAAATAAT [CACACA_site8760] | 10
85 | AAAAATGATATGAGTTGTACATAAGTAAGAATTATT [XGTACX_site7089] | 9.89
86 | TAAAAACGATTTTTTGCACACACATAATAAGCAGAA [CACACA_site3870] | 10
87 | GGACAAGTTAAACGCACACAAATATATACCCCCATA [CACACA_site4996] | 10.3
88 | TATAATAAAATATGTACACACATACACCCATATATA [CACACA_site4808] | 10.3

Reference: the supplement of paper PMC11417369
